Results published in PMC12136788.
Some of the results follow.

B1: chr4:41955281:41955382:+|3pUTR|ENSG00000109133|msi1|FALSE|unique (ssRNA)
RNA: GGGAGUUCUACAGUCCGACGAUCGUAGGGGGAGGAGUUGUGGGGGAAUAAUGUGCAUUUCAGUCUCAACGCAUAGAUAAAUUUAGGGGAAUUGGAUGUAUUAUUCAACUUUGAUUUGGGUUGUAAAAUGUGUUAAAUCCUGUUCAACAGAGGAUUGAGCAUCA
B2: chr19:10133403:10133440:-|3pUTR|ENSG00000130816|msi1_unk|total|mutant (ssRNA)
RNA: GGGAGUUCUACAGUCCGACGAUCUUUUUUAUUAUGCAUUAUAUCAAAUCUACCACUGUAUGAGUGGAAAUUAAGACUUUAUGCCGUUUUUAUAUGUUGUAAUAUUUCUUCAAAUAAAUCUCUCCUAUAAACCACCCUGGGUGGCAACAGAGGAUUGAGCAUCA
B3: chr8:93923365:93923466:+|CDS|ENSG00000164951|msi1|total|mutant (ssRNA)
RNA: GGGAGUUCUACAGUCCGACGAUCGCAGGAUGUGGUCCGGAUUGUGGGUGAGUACCUAACUGGCAUGCAUCACCAACAGCCAACCGCUGUUGGUGGCUACAAGGUGACUCUGGGACAGAUGCAUGGCCUUUUAACAGAAAGGAGCAACAGAGGAUUGAGCAUCA
B4: chr1:45003092:45003193:-|3pUTR|ENSG00000126107|msi1|total|mutant (ssRNA)
RNA: GGGAGUUCUACAGUCCGACGAUCGGAAUCUUCCACAAGCCCAGCACAAGCUGCCAGGCCUGAGCUACUUGAAGGGGGCCAUCCCGGUCCCCAACCCAUGGACUUUGCCUCCAUUUUCAGCUCCGCCUUUUUUCUCCUAUUUUCCAACAGAGGAUUGAGCAUCA
B5: chrX:101163201:101163302:+|3pUTR|ENSG00000102384|unk|total|mutant (ssRNA)
RNA: GGGAGUUCUACAGUCCGACGAUCUCAUCAUCAGGCUCUGCGUUCUACCAAAUUGUAUGUAAAAAGACACAUCUGUUUUGUGGCCGGAUUUUUUCACAUUUUUGGGUACUAUGAGCUGCAUUGAUGGAAGACAGCAGGCAAUAUCAACAGAGGAUUGAGCAUCA
B6: chr5:60870179:60870280:-|3pUTR|ENSG00000049167|unk|total|mutant (ssRNA)
RNA: GGGAGUUCUACAGUCCGACGAUCUCUCCUUGCCCUUUUUGUUUUGUUUUGUUUCAAUUCUCCGAACUGCCGUUGGCAUGCCGCCGGUGCUUAAUAAUUACUUGUUUUGUUGUUUCUGUCCUAUACUUUGAGAGUUUGUGUUUGCAACAGAGGAUUGAGCAUCA
B7: chr11:108172639:108172748:-|CDS|ENSG00000149308|unk|total|mutant (ssRNA)
RNA: GGGAGUUCUACAGUCCGACGAUCGUUAUCAUCCGUGAUGAUCCAUUUGUUUCCUCAGAUACUGAACUUACCAGUGCUGUUUCCCGUAUUAAUGGAGAAAACCUGCCAACUAUAAUCUUGUCUUCUCCUACUAAAUCACCUACUCAACAGAGGAUUGAGCAUCA
B8: chr8:142872356:142874372:-|three_prime_utr|ENSG00000160882|control|control|control (ssRNA)
RNA: GGGAGUUCUACAGUCCGACGAUCUUCCUGAGUCACCCCUCUGUCUAACCAGCCCCAGCACAAAUGGAACUCCCGAGGGCCUCUAGGACCAGGGUUUGCCAGGCUAAGCAGCAAUGCCAGGGCACAGCUGGGGAAGAUCUUGCUCAACAGAGGAUUGAGCAUCA
B9: chr11:95167508:95167609:-|3pUTR|ENSG00000149212|unk|FALSE|unique (ssRNA)
RNA: GGGAGUUCUACAGUCCGACGAUCAAUAAUGGAGACUGAAUGAGGCGGUUUGUAUUAAAUUAUAUGCCAUGAAGUGUUCAUUUUAGCUUUAACCUAAUUAUGACUGUACCACCAUGAAGUACAGAAUGAAAAAUUAUAUAUAUGCAACAGAGGAUUGAGCAUCA
B10: chr3:160434497:160434598:+|3pUTR|ENSG00000113810|msi1|FALSE|bound_elsewhere (ssRNA)
RNA: GGGAGUUCUACAGUCCGACGAUCUUUAUGAUAGGUUUAUCCGGGUACUAAAUGCAUUUCAACUUGAUAGUUUCAACUUAUGAUAGGUUUACCAGGAUGUAGUCCCACUGUUGAGGAGCAUCUAUUUAGGGGUUAAUUACUUUACAACAGAGGAUUGAGCAUCA
B11: chr1:204551843:204551944:+|3pUTR|ENSG00000198625|unk|FALSE|unique (ssRNA)
RNA: GGGAGUUCUACAGUCCGACGAUCAGUGUUCCUGGAAUCUCUAUGCAAGUUUUAUACAGAACAUACUUUUGGAAUCCUUGCCCUAGACAGGGGUGUCCAAUCUUUUGGCUUCCCUGGUCCACAAUGGAAGAAGAAUUGUCUUGGCAACAGAGGAUUGAGCAUCA
B12: chr9:74999729:74999870:-|CDS|ENSG00000156017|control|control|control (ssRNA)
RNA: GGGAGUUCUACAGUCCGACGAUCAGUAAAUAUUCUGGUACCUGGUGCUGGACUAGGAAGACUGGCCUGGGAAAUAGCUAUGCUAGGUUAUGCUUGUCAAGGAAAUGAAUGGAGUUUUUUUAUGCUCUUUUCUUCCAACUUUGUCAACAGAGGAUUGAGCAUCA
B13: chr3:44647099:44647200:+|3pUTR|ENSG00000186448|msi1|total|mutant (ssRNA)
RNA: GGGAGUUCUACAGUCCGACGAUCAUUUGUAUGUAAACUACAUAAAGAACUUUCCAAAUUUAACAGUAAUAAGUAAAUACAAUCCGAAAAUAAGCAAAAGACAGACAUUUCACUGAAGUACCGACCGCAAAUAAGCAAAUGAAACAACAGAGGAUUGAGCAUCA
B14: chr10:110898111:110898227:+|3pUTR|ENSG00000150593|unk|FALSE|bound_elsewhere (ssRNA)
RNA: GGGAGUUCUACAGUCCGACGAUCAUAAGAACUCUUGCAGUCUUAGAUGUUAUAAAAAUAUAUAUCUGAAUUGUAAGAGUUGUUAGCACAAGUUUUUUUUUUUUUUUUUUUUAAGCACUUGUUUUGGGUACAAGGCAUUUCUGACAACAGAGGAUUGAGCAUCA
B15: chr7:76328962:76329048:-|3pUTR|ENSG00000170027|msi1_unk|total|mutant (ssRNA)
RNA: GGGAGUUCUACAGUCCGACGAUCACCUGAGGUCUCAUUCAUCCUUAUGGUUCCGGCCUUGCCAGUUUUCCGAAGUCUCUGAUCCGUUGACAGUAUUAACACUAAAUUGCAGUUUACAGUAUUUCUACAUUACAGCCAUAUGUACAACAGAGGAUUGAGCAUCA
B16: chr10:110133424:110133536:+|CDS|ENSG00000148700|unk|FALSE|bound_elsewhere (ssRNA)
RNA: GGGAGUUCUACAGUCCGACGAUCGCAUGAUGUUGAAGAUGAGCUUGCUAAGCGAGUGAGUAGGUUAAGCACAAGUACAACCAUAGAAAACAUCGAGAUUACUAUUAAGUCUCCAGAGAAAAUCGAAGAAGUCCUGUCACCUGACAACAGAGGAUUGAGCAUCA
B17: chr5:113019263:113019364:+|3pUTR|ENSG00000172795|msi1|FALSE|unique (ssRNA)
RNA: GGGAGUUCUACAGUCCGACGAUCCUCAACUGUGAAUGAAAUUUAGAAAGAUAAUUCUUCAGCAGUUGGUUGAUUAGAUGGGUUAGUGCUUUUGGAAUAUAUAACAGUAGACUUGUAUUCUUUAUGCACUAUACAUAUGAUACGCAACAGAGGAUUGAGCAUCA
B18: chr3:58425360:58425463:+|3pUTR|ENSG00000168297|unk|total|mutant (ssRNA)
RNA: GGGAGUUCUACAGUCCGACGAUCAGACAGCUCCCCGAAACAUUCCUCUUACAGUUCAUUUCUCUAAAGCAUUUUCUGAUUCUCCGAUAACUCCAAUUUUUGCUACCUUUAUCUCCGACAUUAACACUACCGCCCAAAGCACCGCAACAGAGGAUUGAGCAUCA
B19: chr10:100209595:100209696:-|CDS|ENSG00000213341|unk|total|mutant (ssRNA)
RNA: GGGAGUUCUACAGUCCGACGAUCACUUCUUUCAGAGACAGGAAUUUCUCUGGAUCCUCGGAAACCAGCCUCUCAAUGUGUUCCCGAUGGAGUUGUAAGAAAAUUAAUUAUAAUAUCCCCCGAGUAUGUGAAAUCCCGAGGGAUCAACAGAGGAUUGAGCAUCA
B20: chr7:122320167:122320338:-|CDS|ENSG00000081803|control|control|control (ssRNA)
RNA: GGGAGUUCUACAGUCCGACGAUCUGUGUUGGAAGGAACACUGAACAGUAAGACUUAUGAUACUGUGCACAGACGUUUAACAGUAGAGGAGGCCACAGCCUCUGUUUCAGAAGGAGGAGGACUUCAGGGCAUUACUAUGAAAGACAACAGAGGAUUGAGCAUCA
B21: ENSG00000119401:stop:overlap|stop_codon|ENSG00000119401|stop_codon|NA|stop_codon (ssRNA)
RNA: GGGAGUUCUACAGUCCGACGAUCACUGUUGGGAUCAUUGCAUCAAGAUCUACAGCUACCAUCUGAGAAGAUAUUCCACCCCAUAGGGGAUGAGAAAUUAUCAGUUUCUUCUGCUCCCAAGCCAACUUCCCUUCCCUUAGUUCUCAACAGAGGAUUGAGCAUCA
B22: chr12:105021166:105021267:-|3pUTR|ENSG00000136010|unk|FALSE|unique (ssRNA)
RNA: GGGAGUUCUACAGUCCGACGAUCAGUCAGACAGUGUCACUUCACUCGUCUGUUUAAAACCUUUCAAUGGCCCCCAUUUCACGUAGACCAAAGUCCAACGUAUUUACCUGGCCUACUGAUCUUGCUCCUAGCUACCUCUGACCUCAACAGAGGAUUGAGCAUCA

These binders were tested against MSI1 full-length (mouse, UniProt Q61474 1-362) (assay: nsRBNS (natural sequence RNA bind-n-seq); RBNS binding buffer (assumed for nsRBNS): 25 mM Tris pH 7.5, 150 mM KCl, 3 mM MgCl2, 0.01% Triton X-100, 500 ug/ml BSA, 20 U/ml SUPERase-In, 4 C; UNK is unkempt and MSI1 is Musashi-1; names of the RNAs are library labels; protein concentration not given here; high values mean tight binding).
Chain of UniProt Q61474 (Q61474 whole entry): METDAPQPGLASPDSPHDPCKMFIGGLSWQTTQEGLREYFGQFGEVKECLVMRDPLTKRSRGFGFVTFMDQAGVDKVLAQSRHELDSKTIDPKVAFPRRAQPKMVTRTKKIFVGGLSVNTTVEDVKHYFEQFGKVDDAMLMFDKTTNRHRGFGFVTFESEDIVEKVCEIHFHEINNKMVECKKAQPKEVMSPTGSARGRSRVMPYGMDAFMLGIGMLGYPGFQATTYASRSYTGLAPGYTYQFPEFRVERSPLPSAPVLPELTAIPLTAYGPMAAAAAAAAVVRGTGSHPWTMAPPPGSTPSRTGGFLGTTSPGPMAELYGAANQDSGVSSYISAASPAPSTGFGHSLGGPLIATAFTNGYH
In the case of B1, the binding signal is reported as 9 enrichment R. For B2, the binding signal was 1.75 enrichment R. B3 gave a binding signal of 0.41 enrichment R. Work on B4 yielded a binding signal of 0.44 enrichment R. B5 was tested, and the binding signal was 0.214 enrichment R. Work on B6 yielded a binding signal of 1.79 enrichment R. B7 was tested, and the binding signal was 0.428 enrichment R. For B8, the binding signal was 0.585 enrichment R. B9 gave a binding signal of 3.55 enrichment R. For B10, the binding signal was 3.41 enrichment R. With B11 the binding signal was 0.363 enrichment R. For B12, the binding signal was 0.468 enrichment R. In the case of B13, the binding signal is reported as 19.7 enrichment R. With B14 the binding signal was 1.69 enrichment R. B15 was tested, and the binding signal was 1 enrichment R. B16 gave a binding signal of 1.04 enrichment R. Work on B17 yielded a binding signal of 1.92 enrichment R. Work on B18 yielded a binding signal of 1.78 enrichment R. B19 showed a binding signal of 0.439 enrichment R. Work on B20 yielded a binding signal of 0.605 enrichment R. B21 showed a binding signal of 0.384 enrichment R. Binder B22 has a binding signal of 0.427 enrichment R.
